# Test results taken from the RNAGym collection of RNA variant scans (doi:10.7554/elife.90254).
# Read counts are not given, so values of variants with three or more changes are uncertain.
# B1: LINE1-mini (parent)
# chain: GGCAGAGCUCAACACAGCGUGGCAAAGUGGCUGUGGCUAGACUGCC
# Variants of: B1
# Assay: self-cleavage, relative activity (ratio to wild type); higher = more cleavage; in vitro, sequencing; the parent is a self-cleaving ribozyme
row,Variant,self-cleavage
1,A16G C18U G35C G40C,0.01
2,A16U A26C G29A G30A C31A U34A,0.01
3,A16G G27C C42G,0.03
4,A16G C31U A39G,0.03
5,A16U A24U U38G C45U,0.02
6,A16G C18U G30A G36A A39C C45A,0.02
7,A16G U34G C42G,0.03
8,A16G G17U G22C A24U A41G,0.03
9,A16U C18U G33C G36C C37A,0.01
10,A16U G17A U20A U32C,0.04
11,A16G U34G C46U,0
12,A16G G17U A26C A39G C45G,0.06
13,A16G G17A G33C,0.01
14,A16G G40U U43A,0.39
15,A16G G17C C46A,0.66
16,A16G G30A G33U,0.03
17,A16U G17A G36A,0.02
18,A16G G19C C37A,0.02
19,A16U A26U U34C U38G,0.01
20,A16G G27U G36U A39U,0.04
21,A16U A25C G44U,0
22,A16G G19A U20A G22C G30C,0.42
23,A16G G21U U34A,0
24,A16G G21C U38G A39G,0.01

row,Variant,self-cleavage
1,A16G G19C C46A,0.67
2,A16U A26G C46G,0.13
3,A16U G17C C45A,0.04
4,A16U G19A A41G C42G,0.2
5,A16U G19A G21U C31U,0.07
6,A16G G36A G40U,0.07
7,A16U A39G U43C,0.02
8,A16G G19C G40A,0.02
9,A16U G17C G19A G40A,0.03
10,A16U A26U G44U,0.04
11,A16U C37A U38G C42A,0
12,A16G G21A G44C,0.23
13,A16G G21A G44U,0.05
14,A16G U20G C23G,0.01
15,A16G G17A G19A A24U G27A,0.29
16,A16G G29A C31A,0.01
17,A16G A26G U32A G36C A39C C42A,0.01
18,A16G U28C G29U U32G,0
19,A16U C18G C31U C37A G44A,0.07
20,A16G G19A C42A,0.01
21,A16G U28C U32G,0.06
22,A16G G21C U32G A39U G44A,0.01
23,A16G U20C G21C G27A,0.3
24,A16G U20G G30A,0.02

row,Variant,self-cleavage
1,A16G G21U C23A G44A,0.11
2,A16G U20G C42U,0.03
3,A16U G17U U28G G36A,0.13
4,A16G G33C U38G,0.02
5,A16G G17U G33U G36C,0.01
6,A16U G17C C18A,0.07
7,A16G A26G C31A A41G C45U,0.01
8,A16U C18G G36C A39G,0.02
9,A16G G22U G33U,0.09
10,A16G G22A C23G,0.44
11,A16G C42U C45G C46G,0.02
12,A16U C23U G27A C42U,0.34
13,A16U C31A G33C,0
14,A16U A24G A41U,0.12
15,A16G G19U G29U,0.64
16,A16G C37A C45U,0.01
17,A16G G19A A25C G33U,0.01
18,A16G C18U A26C A39U,0.15
19,A16G G29C C31A C42G,0.01
20,A16G C18U G19A G36U,0.02
21,A16G U32C C42A G44A,0.02
22,A16U C18A G30A,0.15
23,A16U C18G G27U C42U,0.02
24,A16U C18A C31U C45A,0.02

row,Variant,self-cleavage
1,A16G G29U G44A,0.12
2,A16U C31A C46A,0.01
3,A16G G29C G30C G36U G44U,0.05
4,A16G G22A U43C C46G,0
5,A16U A26U G33A,0.05
6,A16G G27U U28A G40C,0.09
7,A16G C18U U32G C45A,0.01
8,A16G C18A C23A C42G,0.01
9,A16G A39U C42U,0
10,A16G C18G G22C C23A G30U C31A,0.02
11,A16G G22C C31U,0.02
12,A16G C23A A25C U43C,0.01
13,A16U C18A G19A,0.06
14,A16U C18U A24G G30A G40C,0.04
15,A16G U20C G21U,0.46
16,A16G G19U U28G,0.95
17,A16G G29A U34G,0.07
18,A16U C23G G36U,0.05
19,A16U A39G C46A,0
20,A16U A26U C37G,0.07
21,A16U C23A C45A,0.05
22,A16U G17A U28C,0.03
23,A16G C23U C45G,0.03
24,A16G U32A U43G G44U,0.02

row,Variant,self-cleavage
1,A16U C31G C46A,0.06
2,A16G G33U U38C,0.03
3,A16G G33A A39U,0.07
4,A16G G22C A39C,0.01
5,A16G U28C C46G,0.06
6,A16G U28C C46U,0.33
7,A16U C18A G33U C45G,0.04
8,A16U C23A A24U,0.22
9,A16U G17A C23U G27C,0.21
10,A16U G17A G30C G35A,0.1
11,A16G G30C G40A,0.01
12,A16U C23A C42G,0.05
13,A16G G22A G36A,0.18
14,A16U C18A U38A,0.07
15,A16G C18A G21U C46G,0.17
16,A16G G17C A25U U28C U32C,0.52
17,A16U G17A A25U U38C,0.07
18,A16U C37G U38A,0
19,A16G C18U C31G,0.01
20,A16U A26C G27U,0.1
21,A16G C31A G40U,0
22,A16U A24U C42A C45A,0.01
23,A16G G30U C31U C45G C46G,0.03
24,A16G U20G G44U C45A,0.05

row,Variant,self-cleavage
1,A16U C18U A26C,0.1
2,A16G G17U C23G U34A,0.01
3,A16G C37U A41G,0.02
4,A16G C18U G19U U28A U32G G33C,0.02
5,A16U C18U G22C G35C,0.03
6,A16G G19A C45U,0.17
7,A16G A39U C46G,0.23
8,A16U C18U U32C G40A G44A,0.04
9,A16U A26U C46A,0.05
10,A16G G29A G30A C31U,0.08
11,A16G G22U G29U,0.04
12,A16U C18G G22C A41C,0.03
13,A16G G21C A41G,0.02
14,A16G A26C C31A U32G,0.01
15,A16G U38A C46G,0.37
16,A16U A26G C45A,0.37
17,A16G G27U U38A,0.24
18,A16G G27U U38C,0.01
19,A16G G17A C31A,0
20,A16U C23G C37A A41U U43A,0.28
21,A16U G19A A24C G36U,0.06
22,A16G U34G C42A G44A,0.02
23,A16U C37U G44U,0.03
24,A16G C18A G19A A25G,0

row,Variant,self-cleavage
1,A16G U20G G22U G30A,0.17
2,A16G G21C G30C,0.83
3,A16U C37A G40A,0.08
4,A16G G19U C31U G44A,0.03
5,A16G C31A U43A,0
6,A16U A26U U43G C46A,0.02
7,A16G G27U C46U,0.18
8,A16U C23U G29C,1.34
9,A16U C23G U28A,0.09
10,A16G G19U C42G,0.02
11,A16G A26U G30U U34A,0.09
12,A16U G17U G35C U38G C42U,0.02
13,A16U C31G G35U,0.02
14,A16G G36U G40C,0.03
15,A16G C23U G27C,0.21
16,A16G C31A G33A,0
17,A16G G17U G29A G33U C46A,0.05
18,A16G G21U A24U C31U G35A G36A,0.02
19,A16G U20A C46A,0.36
20,A16U G17U G29C U38G,0.03
21,A16G U20G G33U,0.01
22,A16G C23U G40C,0.07
23,A16G C18A G21C C31A,0.03
